Laboratory results reported in the supplement of paper PMC10369915.
This is one part of the list. Rule as the data show it: active = 3.2 or more and inactive = the rest. Only a few entries rise above the background.

Experiments:
Test in all cases: enrichment score (SH2-bound / input frequency) (ratio); bacterial display of known human phosphotyrosine sites (pTyr-Var adds point mutants) read by sequencing; higher = stronger binding; tyrosines were phosphorylated by kinases first
Conditions in all cases: peptide library: Human pTyr
SHP2 C-SH2 domain E139D = molecular target: SHP2 C-SH2 domain E139D
[1] = molecular target: SHP2 C-SH2 domain wild-type
SHP2 N-SH2 domain L43F = molecular target: SHP2 N-SH2 domain L43F
SHP2 N-SH2 domain T42A = molecular target: SHP2 N-SH2 domain T42A
SHP2 N-SH2 domain T52S = molecular target: SHP2 N-SH2 domain T52S
[2] = molecular target: SHP2 N-SH2 domain wild-type

Measured: enrichment score
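Also: displayed peptides selected on beads carrying the immobilized SH2 domain, with library peptides lacking any tyrosine serving as negative controls.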

ARSAASSYSAPVSSS [NFL_HUMAN_43_YA]
inactive: SHP2 C-SH2 domain E139D 0.563 | [1] 0.503 | SHP2 N-SH2 domain L43F 0.572 | SHP2 N-SH2 domain T42A 0.497 | SHP2 N-SH2 domain T52S 0.582 | [2] 0.54

AEQEELHYIPIRVLG [NEK9_HUMAN_52]
inactive: SHP2 C-SH2 domain E139D 1.24 | [1] 1.01 | SHP2 N-SH2 domain L43F 1.01 | SHP2 N-SH2 domain T42A 0.795 | SHP2 N-SH2 domain T52S 1.13 | [2] 1.37

TEVYGEFYPVPPPYS [NFIP2_HUMAN_171]
inactive: SHP2 C-SH2 domain E139D 0.867 | [1] 0.549 | SHP2 N-SH2 domain L43F 0.528 | SHP2 N-SH2 domain T42A 0.808 | SHP2 N-SH2 domain T52S 0.686 | [2] 0.694

GSGSESGYTTPKKRK [NUFP2_HUMAN_218]
inactive: SHP2 C-SH2 domain E139D 1.14 | [1] 1.28 | SHP2 N-SH2 domain L43F 0.997 | SHP2 N-SH2 domain T42A 1.1 | SHP2 N-SH2 domain T52S 1.1 | [2] 1.28

FGMSRDVYSTDAARV [NTRK2_HUMAN_702_YA]
inactive: SHP2 C-SH2 domain E139D 0.577 | [1] 0.638 | SHP2 N-SH2 domain L43F 0.688 | SHP2 N-SH2 domain T42A 0.561 | SHP2 N-SH2 domain T52S 0.553 | [2] 0.706

YTLLNENYVEDDDNM [NMT1_HUMAN_180]
inactive: SHP2 C-SH2 domain E139D 1.2 | [1] 0.951 | SHP2 N-SH2 domain L43F 1.01 | SHP2 N-SH2 domain T42A 0.761 | SHP2 N-SH2 domain T52S 0.922 | [2] 1.26

KVVCMDKYRLSCLEE [NOS2_HUMAN_575]
inactive: SHP2 C-SH2 domain E139D 0.977 | [1] 0.883 | SHP2 N-SH2 domain L43F 0.935 | SHP2 N-SH2 domain T42A 1.09 | SHP2 N-SH2 domain T52S 1.12 | [2] 0.919

DIYSTDYYRVGGRTM [NTRK1_HUMAN_681]
inactive: SHP2 C-SH2 domain E139D 0.9 | [1] 0.683 | SHP2 N-SH2 domain L43F 0.696 | SHP2 N-SH2 domain T42A 0.706 | SHP2 N-SH2 domain T52S 0.663 | [2] 0.575

DDQSEAVYEEMKYPI [NYAP2_HUMAN_268]
inactive: SHP2 C-SH2 domain E139D 1.06 | [1] 1.08 | SHP2 N-SH2 domain L43F 1.22 | SHP2 N-SH2 domain T42A 1.06 | SHP2 N-SH2 domain T52S 1.11 | [2] 1.15

DQDARDLYDAGVKRK [ANXA2_HUMAN_199]
inactive: SHP2 C-SH2 domain E139D 0.932 | [1] 0.798 | SHP2 N-SH2 domain L43F 0.7 | SHP2 N-SH2 domain T42A 0.61 | SHP2 N-SH2 domain T52S 0.694 | [2] 0.813

DGTFDNIYLHVQISN [NAA50_HUMAN_110]
inactive: SHP2 C-SH2 domain E139D 1.37 | [1] 1.28 | SHP2 N-SH2 domain L43F 1.57 | SHP2 N-SH2 domain T42A 1.18 | SHP2 N-SH2 domain T52S 1.9 | [2] 1.6

IEQIGLLYQEARDKS [NGEF_HUMAN_179_YA]
inactive: SHP2 C-SH2 domain E139D 0.823 | [1] 0.638 | SHP2 N-SH2 domain L43F 0.664 | SHP2 N-SH2 domain T42A 0.652 | SHP2 N-SH2 domain T52S 0.607 | [2] 0.632

DSANSSFYSTRSAPA [NUMA1_HUMAN_1836]
inactive: SHP2 C-SH2 domain E139D 0.565 | [1] 0.594 | SHP2 N-SH2 domain L43F 0.699 | SHP2 N-SH2 domain T42A 0.627 | SHP2 N-SH2 domain T52S 0.673 | [2] 0.705

KRTEQDHYETDATTG [OCLN_HUMAN_398_YA]
inactive: SHP2 C-SH2 domain E139D 0.95 | [1] 0.929 | SHP2 N-SH2 domain L43F 1.05 | SHP2 N-SH2 domain T42A 0.886 | SHP2 N-SH2 domain T52S 1.07 | [2] 1.16

DIASTDAYRVGGRTM [NTRK1_HUMAN_681_YA]
inactive: SHP2 C-SH2 domain E139D 0.661 | [1] 0.577 | SHP2 N-SH2 domain L43F 0.65 | SHP2 N-SH2 domain T42A 0.606 | SHP2 N-SH2 domain T52S 0.633 | [2] 0.528

EDEESEDYQNSASIH [NTAL_HUMAN_193]
inactive: SHP2 C-SH2 domain E139D 1.06 | [1] 1.16 | SHP2 N-SH2 domain L43F 0.967 | SHP2 N-SH2 domain T42A 1.17 | SHP2 N-SH2 domain T52S 1.2 | [2] 1.15

DVASTDAYRLFNPSG [NTRK3_HUMAN_710_YA]
inactive: SHP2 C-SH2 domain E139D 0.606 | [1] 0.486 | SHP2 N-SH2 domain L43F 0.946 | SHP2 N-SH2 domain T42A 0.469 | SHP2 N-SH2 domain T52S 0.517 | [2] 0.484

EEDGEPDYVNGEVAA [NTAL_HUMAN_233]
inactive: SHP2 C-SH2 domain E139D 1.29 | [1] 1.1 | SHP2 N-SH2 domain L43F 1.17 | SHP2 N-SH2 domain T42A 1.21 | SHP2 N-SH2 domain T52S 1.23 | [2] 1.27

KPFENGQYLDIAGIT [NEGR1_HUMAN_187_YA]
inactive: SHP2 C-SH2 domain E139D 0.852 | [1] 0.574 | SHP2 N-SH2 domain L43F 0.656 | SHP2 N-SH2 domain T42A 0.666 | SHP2 N-SH2 domain T52S 0.732 | [2] 0.853

FGMSRDVYSTDYYRL [NTRK3_HUMAN_705]
inactive: SHP2 C-SH2 domain E139D 1.02 | [1] 0.883 | SHP2 N-SH2 domain L43F 0.801 | SHP2 N-SH2 domain T42A 0.788 | SHP2 N-SH2 domain T52S 0.634 | [2] 1.13

ACLSPGYYSPDYGLP [ANR11_HUMAN_1851]
inactive: SHP2 C-SH2 domain E139D 1.08 | [1] 1.14 | SHP2 N-SH2 domain L43F 1.06 | SHP2 N-SH2 domain T42A 0.789 | SHP2 N-SH2 domain T52S 1.12 | [2] 1.18

NQDAEALYTAMKGFG [ANXA6_HUMAN_30]
inactive: SHP2 C-SH2 domain E139D 0.568 | [1] 0.508 | SHP2 N-SH2 domain L43F 0.605 | SHP2 N-SH2 domain T42A 0.491 | SHP2 N-SH2 domain T52S 0.607 | [2] 0.55

TTSDTEVYGEFYPVP [NFIP2_HUMAN_167]
inactive: SHP2 C-SH2 domain E139D 0.624 | [1] 0.92 | SHP2 N-SH2 domain L43F 0.52 | SHP2 N-SH2 domain T42A 0.509 | SHP2 N-SH2 domain T52S 0.583 | [2] 0.793

STSLDTLYTSSSPSE [NCKIPSD_HUMAN_227]
inactive: SHP2 C-SH2 domain E139D 0.561 | [1] 0.462 | SHP2 N-SH2 domain L43F 0.488 | SHP2 N-SH2 domain T42A 0.571 | SHP2 N-SH2 domain T52S 0.578 | [2] 0.38

DGGNAHVYENGSLEI [NFASC_HUMAN_481_YA]
inactive: SHP2 C-SH2 domain E139D 0.95 | [1] 0.767 | SHP2 N-SH2 domain L43F 0.823 | SHP2 N-SH2 domain T42A 0.808 | SHP2 N-SH2 domain T52S 0.762 | [2] 0.717

FDEIELAYRRRPPRS [NMDE2_HUMAN_1109]
inactive: SHP2 C-SH2 domain E139D 0.477 | [1] 0.403 | SHP2 N-SH2 domain L43F 0.543 | SHP2 N-SH2 domain T42A 0.856 | SHP2 N-SH2 domain T52S 0.645 | [2] 0.534

FGMSRDVYSTDYYRV [NTRK2_HUMAN_702]
inactive: SHP2 C-SH2 domain E139D 0.777 | [1] 0.797 | SHP2 N-SH2 domain L43F 0.732 | SHP2 N-SH2 domain T42A 0.635 | SHP2 N-SH2 domain T52S 0.849 | [2] 0.822

ICGPEENYPSLQMSS [NANOG_HUMAN_35]
inactive: SHP2 C-SH2 domain E139D 1.25 | [1] 0.942 | SHP2 N-SH2 domain L43F 1.23 | SHP2 N-SH2 domain T42A 0.893 | SHP2 N-SH2 domain T52S 1.06 | [2] 1.06

FGMSRDIYSTDAARV [NTRK1_HUMAN_676_YA]
inactive: SHP2 C-SH2 domain E139D 0.783 | [1] 0.642 | SHP2 N-SH2 domain L43F 0.704 | SHP2 N-SH2 domain T42A 0.66 | SHP2 N-SH2 domain T52S 0.613 | [2] 0.654

GNLDGLEYKLHDFGY [NAMPT_HUMAN_188]
inactive: SHP2 C-SH2 domain E139D 0.604 | [1] 0.547 | SHP2 N-SH2 domain L43F 0.494 | SHP2 N-SH2 domain T42A 0.612 | SHP2 N-SH2 domain T52S 0.491 | [2] 0.552

FGMSRDVYSTDAARL [NTRK3_HUMAN_705_YA]
inactive: SHP2 C-SH2 domain E139D 0.603 | [1] 0.543 | SHP2 N-SH2 domain L43F 0.583 | SHP2 N-SH2 domain T42A 0.624 | SHP2 N-SH2 domain T52S 0.574 | [2] 0.632

KRTEQDHYETDYTTG [OCLN_HUMAN_398]
inactive: SHP2 C-SH2 domain E139D 0.996 | [1] 0.943 | SHP2 N-SH2 domain L43F 0.788 | SHP2 N-SH2 domain T42A 0.718 | SHP2 N-SH2 domain T52S 0.862 | [2] 0.88

FAPVPPPYSVATSLP [NFIP2_HUMAN_177_YA]
inactive: SHP2 C-SH2 domain E139D 0.617 | [1] 0.674 | SHP2 N-SH2 domain L43F 0.646 | SHP2 N-SH2 domain T42A 0.656 | SHP2 N-SH2 domain T52S 0.846 | [2] 0.654

GPLGGSSYEEEEEEE [NECT1_HUMAN_436]
inactive: SHP2 C-SH2 domain E139D 1.04 | [1] 1.04 | SHP2 N-SH2 domain L43F 1.02 | SHP2 N-SH2 domain T42A 0.988 | SHP2 N-SH2 domain T52S 1 | [2] 1.31

VVGGCQEYTGAPAFA [NNRD_HUMAN_85_YA]
inactive: SHP2 C-SH2 domain E139D 1.11 | [1] 1.07 | SHP2 N-SH2 domain L43F 0.991 | SHP2 N-SH2 domain T42A 1.02 | SHP2 N-SH2 domain T52S 1.03 | [2] 1.08

NSLNTDDYGGGGGGG [A17_VAR67_203]
inactive: SHP2 C-SH2 domain E139D 0.565 | [1] 0.577 | SHP2 N-SH2 domain L43F 0.534 | SHP2 N-SH2 domain T42A 0.49 | SHP2 N-SH2 domain T52S 0.531 | [2] 0.64
